Over roughly 110,000 compounds, “z-score” has its median near -0.1; the highest 2% begin near 2. This is one part of the list. Active and inactive are the calls of the source.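 The calls were made as follows: active = z-score in the third read window above 3 or below -3; inactive = the rest.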
What follows are compounds tested against Metabotropic glutamate receptor 8 (Rattus norvegicus) (UniProt P70579) (assay: rat mGluR8 modulators via GIRK flux, primary screen, cell-based, thallium flux, HTS (AID 488969)). Settings: HEK293 rat mGluR8, GIRK (G protein-gated inwardly rectifying potassium channel) thallium flux, FluoZin2; at 10 µM; stronger effect = higher value; submaximal glutamate (EC20) added with thallium.
Sequence of UniProt P70579 (P70579 whole entry, looked up): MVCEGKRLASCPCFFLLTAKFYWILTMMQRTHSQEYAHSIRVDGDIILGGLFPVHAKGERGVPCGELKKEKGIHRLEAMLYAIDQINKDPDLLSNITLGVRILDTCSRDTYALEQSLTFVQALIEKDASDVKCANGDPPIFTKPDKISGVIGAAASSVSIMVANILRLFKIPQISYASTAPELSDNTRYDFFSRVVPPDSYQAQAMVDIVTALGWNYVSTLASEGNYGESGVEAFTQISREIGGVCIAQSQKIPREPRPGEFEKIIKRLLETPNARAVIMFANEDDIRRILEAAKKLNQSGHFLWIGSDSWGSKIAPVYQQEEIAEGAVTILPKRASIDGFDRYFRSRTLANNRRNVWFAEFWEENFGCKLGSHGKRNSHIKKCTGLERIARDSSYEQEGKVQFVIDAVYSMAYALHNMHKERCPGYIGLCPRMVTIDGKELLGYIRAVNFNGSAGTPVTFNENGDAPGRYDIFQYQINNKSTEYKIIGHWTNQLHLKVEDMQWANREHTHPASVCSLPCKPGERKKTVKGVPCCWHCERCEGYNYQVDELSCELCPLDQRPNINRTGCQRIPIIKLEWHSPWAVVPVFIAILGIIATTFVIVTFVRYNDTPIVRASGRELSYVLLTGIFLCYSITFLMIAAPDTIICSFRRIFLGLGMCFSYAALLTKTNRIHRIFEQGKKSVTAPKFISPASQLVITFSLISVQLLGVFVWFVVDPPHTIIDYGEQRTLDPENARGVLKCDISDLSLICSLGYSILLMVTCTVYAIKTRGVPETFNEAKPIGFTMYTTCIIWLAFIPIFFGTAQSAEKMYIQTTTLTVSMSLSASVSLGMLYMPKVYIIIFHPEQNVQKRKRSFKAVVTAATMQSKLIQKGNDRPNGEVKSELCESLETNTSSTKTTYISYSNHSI
In the case of `O=C(Nc1ccc(Cl)cc1)OC(CN1CCCCC1)C(F)(F)F` (stereo unspecified), the z-score is reported as -0.481. Compound `COc1ccc(OC)c(NC(=O)Cc2nn(C)c(=O)c3ccccc23)c1` has a z-score of 0.00504. Compound `O=C1OCCC1Sc1nc2ccccc2n1-c1ccccc1` (stereo unspecified) has a z-score of -0.852. `O=C(CSc1nnc(-c2ccc(Cl)cc2)n1Cc1ccco1)c1cccs1` gave a z-score of -0.596. With `C=CCn1c(N)c(C(=O)NCCC2=CCCCC2)sc1=S` the z-score was -0.423. Compound `O=C(c1ccccc1-c1ccccc1)N1CCOCC1` has a z-score of 0.23. `O=C(Oc1ccccc1Cl)c1ccccc1P(=O)(O)O` showed a z-score of 0.0445. Compound `CNCC(O)Cn1c(C(F)(F)F)nc2ccccc21` (stereo unspecified) has a z-score of 0.456. `O=C(Nc1ccc(F)cc1F)c1cc2nc3c(c(C(F)(F)F)n2n1)CCCC3` showed a z-score of -0.127. `COC(=O)Nc1ccc(S(=O)(=O)Nc2cccc3ccccc23)cc1` gave a z-score of -0.325. `COc1ccccc1Cn1c(-c2ccccc2OC)nc2ccccc21` showed a z-score of 0.706. `O=C1C(=Cc2ccco2)C(=O)c2ccccc21` showed a z-score of -0.383. With `COC(C(=O)Nc1ccccc1F)c1ccccc1` (stereo unspecified) the z-score was -0.239. Compound `O=C(Cc1cc(=O)[nH]c(=O)[nH]1)N1CCC(Cc2ccccc2)CC1` has a z-score of -0.299. For `Cc1c(NC(=O)Nc2ccccc2)cccc1[N+](=O)[O-]`, the z-score was 0.571. Compound `O=C(NCc1cccnc1)c1sc2cc(Cl)ccc2c1Cl` has a z-score of -0.46. `CSc1ccccc1NC(=O)CN(C)CC(=O)Nc1ccccc1F` showed a z-score of -0.139. `O=C(Cc1cccs1)NCc1ccco1` showed a z-score of 0.0526. For `Cn1c2c(c(=O)n(C)c1=O)C(c1ccc(Cl)cc1)C(C#N)=C(N)O2` (stereo unspecified), the z-score was 0.311. Work on `N#Cc1c(N)nc2c(c1N)CC(=O)N2c1ccc(Cl)cc1` yielded a z-score of -0.532. For `CCN(CC)CC(C)(C)NS(=O)(=O)c1ccc(Cl)cc1`, the z-score was -0.281. In the case of `COc1ccc(N/N=C(\C#N)C(N)=O)cc1`, the z-score is reported as 0.451. In the case of `N#CC1=C(Nc2ccccc2)SC=C(c2ccc(Cl)c(Cl)c2)N=C1N1CCOCC1`, the z-score is reported as 1.78. Work on `O=C(N/N=C/c1ccc(Cl)cc1)c1sccc1OCc1ccc(F)cc1` yielded a z-score of 0.026. `Cc1onc(-c2ccccc2Cl)c1C(=O)Nc1cccc(-c2cn3cccnc3n2)c1` was tested, and the z-score was -1.07. In the case of `COc1ccccc1C1C2CCCCC2(O)CCN1CC(=O)Nc1ccccc1` (stereo unspecified), the z-score is reported as -0.155. In the case of `Cc1cccc(CCNS(=O)(=O)c2ccc3c(c2)oc(=O)n3C)c1`, the z-score is reported as -0.127. In the case of `COc1ccc(C(=O)Nc2cccc3cccnc23)cc1OC`, the z-score is reported as -0.467. `CCOC(=O)c1sc(NC(=O)C(CC)Sc2nccn2C)nc1C` (stereo unspecified) gave a z-score of -0.124. Compound `CCc1ccc(NC(=O)C2CCN(S(C)(=O)=O)CC2)cc1` has a z-score of 1.27. With `Cc1cc(C)c2cc(CN(CC3CCCO3)C(=O)NC3CCCCC3)c(=O)[nH]c2c1` (stereo unspecified) the z-score was -1.39. In the case of `CCC(C)N1CCCCC1C(=O)Nc1c(C)cc(C)cc1C` (stereo unspecified), the z-score is reported as 0.665. In the case of `CCOC(=O)C1C(C#N)=C(N)OC(C)=C1c1ccncc1` (stereo unspecified), the z-score is reported as -0.177. With `O=C(NCc1cccs1)Nc1cccs1` the z-score was 0.0933. `C[C@H](C(=O)C=[N+]=[N-])N1C(=O)c2ccccc2C1=O` was tested, and the z-score was -0.275. `COCC(=O)N/N=C(\C)CC(=O)Nc1ccccc1C(N)=O` showed a z-score of -0.185. `COc1ccc(S(=O)(=O)N2CCC(C(=O)N3CCOCC3)CC2)cc1OC` was tested, and the z-score was -0.172. For `O=C(CCN1C(=O)COc2ccccc21)NCCN1CCOCC1`, the z-score was 0.151. Work on `Cc1ccc(-c2noc(CCC(=O)NCCCN3CCN(c4cccc(Cl)c4)CC3)n2)cc1` yielded a z-score of 0.00656. `CC(C)(C)c1ccc(NC(=O)COC(=O)CCN2C(=O)c3cccc([N+](=O)[O-])c3C2=O)cc1` was tested, and the z-score was 0.0301. For `CCOC(=O)Cc1csc(NC(=O)Cc2ccc([N+](=O)[O-])cc2)n1`, the z-score was -0.174. `Cc1ccccc1/C=c1\s/c(=C\C(=O)C(C)(C)C)[nH]c1=O` was tested, and the z-score was active: 5.84. For `Cc1ccc(-c2csc3ncn(CC(=O)N4CCOCC4)c(=O)c23)cc1`, the z-score was 0.838. `COc1cc(C(=O)Oc2ccccc2/C=N/NC(=O)c2ccc(C)cc2)cc(OC)c1OC` gave a z-score of -0.0934. With `COc1ccc(NC(=O)COC(=O)CC23CC4CC(CC(C4)C2)C3)c([N+](=O)[O-])c1` the z-score was 2.75. With `N#CC(C(=O)CCN1C(=O)C2CC=CCC2C1=O)c1nc2ccccc2[nH]1` (stereo unspecified) the z-score was 0.0368. `Cn1cccc1/C=C1\SC(=S)N(NC(=O)c2ccc(Cl)cc2)C1=O` gave a z-score of -0.467. Compound `CCn1c(O)c(C2=NCCCC2)c2ccccc21` has a z-score of -1.5. Work on `COc1cccc(N2CCN(C(=S)Nc3cccc(C)c3)CC2)c1` yielded a z-score of -0.0313. `O=C1C(C=NCc2ccncc2)=C(O)c2ccccc21` was tested, and the z-score was -0.586. `CCOc1cc(C2C(C(=O)c3ccc(C)o3)=C(O)C(=O)N2CCc2ccccc2)ccc1O` (stereo unspecified) gave a z-score of -0.129. Compound `O=c1[nH]c2cc3c(cc2cc1CN(CCO)S(=O)(=O)c1ccccc1Cl)OCCO3` has a z-score of -0.162. For `O=C1NC(=S)SC1=C1CCCCCC1`, the z-score was active: 17.1. In the case of `O=C(NN=C1CCN(Cc2ccccc2)CC1)C(O)c1ccccc1` (stereo unspecified), the z-score is reported as -0.114. With `O=c1c2ccccc2ncn1-c1ccc2c(c1)OCCO2` the z-score was 0.748. `O=C1CCC(C(=O)OCc2c(Cl)cccc2Cl)N1` (stereo unspecified) was tested, and the z-score was -0.132.

Source: PubChem BioAssay AID488969 (Vanderbilt High Throughput Screening Facility, 2010)
